Assay results: the RNAGym collection of RNA variant scans (doi:10.7554/elife.90254)
The source gives no read counts; variants with many changes may rest on few reads.

B1: OR4K15 (parent)
chain: GUUAACGGUCAUAGGCCAUGGAAACUAGGAGCACCAUUUCGCUGCCAGUGAAGAAAUGAACAAAGAAAAUCUGGGCCAGGCAGGCAUCAAAAGAAAUAGUCUUGCGCUCAACCAGAAAGUCUGUAAUCAUUUUAAGGGUA

Variants of: B1
Assay: self-cleavage, relative activity (ratio to wild type); higher = more cleavage; in vitro, sequencing; the parent is a self-cleaving ribozyme

Row | Variant | self-cleavage
1 | GUUAACGGUCAUAGGCCAUGGAAACUAGGAGCACCAUUUCGCUGCCAGUGAAGAAAUGAACAAAGAAAAUCUGGGCCAGGCAGGCAUCAAAAGAACCAGUCUUGCGCUCAACCAGAAAGUCUGUAAUCGAUUUAAGGGUA [A96C U97C A129G U130A] | 0.32
2 | GAUAACGGUCAUAGGCCAUGGAAACUGGGAGCACCUUUUCGCUGCCAGUGAAGAAAUGAACAAAGAAAAUCUGGGCCAGGCAGGCAUCAAAAGAAAUAGUCUUGCGCUCAACCAGAAAGUCUGUAAUCAUUUUAAGGGUA [U2A A27G A36U] | 1.46
3 | GUUAACGGUCAUAGGCCAUGGAAACUAGGAGCACCAUUUCGCUGCCAGUGAAGAAAUGAACAAAGAAAAUCUGGGCCAGGCGGGCAUCAAAAGAAGUAGUCUUGCGCUCAACUAGAAAGUCUGUAAUCAUUUUAAGGGUA [A82G A96G C113U] | 0.1
4 | GUUAACGGUCAUAGGCCAUGGAAACUAGGAGCACCAUUUCGCUGCCAGUGAAGAAAUGAACAAAGAAGAUCUGGGCCAGGCAGGCAUCAAAAGAAAUAGUCUUGCGCUCAACCAGAAAGUCUGUAAUCGUCUUAAGGGUA [A68G A129G U131C] | 1.42
5 | GUUAACGGUCAUAGGCCAUGGAAACUAGGAGCACCAUUUCGCUGCCAGUGAAGAAGUGAACAAAGAAAGUCUGGGCCAGGCAGGCAUCAAAAGAAAUAGUCUCGCGCUCAACCAGAAAGUCUGUAAUCAUUUUAAGGGUA [A56G A69G U103C] | 1.13
6 | GUUAACGGUCAUAGGCCAUGGAAACUAGGGGCGCCUUUUCGCUGCCAGUGAAGAAAUGGACAAAGAAAACCUGGGCCAGGCAGGCAUCAAAAGAGAUAGUCUUGCGCUCAACCAGAAAGUCUGUAAUCAUUUUAAGCGUA [A30G A33G A36U A59G U70C A95G G137C] | 0.99
7 | GUUAACGGUCAUAGGCCAUGGAAACUAGGAGCACCAUUUCGCUGCCAGUGAAGAAAUGAACAAAGAAAAUCAGGGCCAGGCAGGCAUCAAAAGAAAUAGUCCUGCGCUCAACCAGAAAGUCUGUAAUCAUUUUAAGGGCA [U72A U102C U139C] | 0.12
8 | GUUAACGGUCAUAGGCCAUGGAAACUAGGAGCACCAUUUCGCCGCCAGUGAAGAAAUGAACAAAGAAAAUCUGGGCCAGGCAGGCAUCAAAAGAGAUAGUCUUGCGCUCAACCAGAAAGUCUGUAAUCAUUUCAAGGGUA [U43C A95G U133C] | 2.46
9 | GUUAACGGUCAUAGGCCAUGGAAGCUAGGAGCACCAUUUCGCUGCCAGUGAUGAAAUGAACAAAGAAAAUCUGGGCCAGGCAGGCAUCGAAAGAAAUAGUCUUGCGCUCAACCAGAAAGACUGUAAUCAUUUUAAGGGUA [A24G A52U A89G U120A] | 1.02
10 | GUUAACGGUCAUAGGCCAUGGAAACUAGGAGCACCAUUCCGCUGCCAGUGAAGAAAUGAACAAAGAAAAUCUGGGCCAGGCAGGCAUCUAAAGAAAUAGUCUUGCGCUCAACCAGAAUGUCUGUAAUCAUUUUAAGGGUA [U39C A89U A118U] | 0.74
11 | GUUAACGGUAAUAGGCCAUGGAAACCAGGAGCACCAUUCCGCUGCCAGUGAAGAAAUGAACAAAGGAAAUCUGGCCCAGGCAGGCAUCAAAGGAAAUAGUCUUGCGCUCAACCAGAAAGUCUGUAAUCAUUUUAAGGGUA [C10A U26C U39C A66G G75C A92G] | 0.06
12 | GUUAACGGUCAUAGGCCAUAGAAACUAGGAGCACCAUUUCGCUGCCAGUGAGGAAAUGAACAAAGAAAAUCUGGGCCAGGCAGGCAUCAAAAGAAAUAGUCCUGCGCUCAACCAGAAAGUCUGUAAUCAUUUUAAGGGUA [G20A A52G U102C] | 2.53
13 | GUUAACGGUCAUAGGCCAUGGAAACUGGGAGCACCACUCCGCUGCCAGUGAAGAAAUGAACAAAGAGAAUCUGGGCCAGGCAGGCAUCAAAAGAAAUAGUCUUGCGCUCAACCAGAAAGUCUGUAAUCAUUUUAAGGGUA [A27G U37C U39C A67G] | 1.09
14 | GUUAACGGUCCUAGGCCAUGGAAACUAGGAGCACCUUUUCGCUGCCAGUGAAGAAAUGAACAAAGAAAAUCUUGGCCAGGCAGGCAUCAAAAGAAAUAGUCUUGCGCUCAACCAGAAAGUCUGUAAUCAUUUUAAGGGUA [A11C A36U G73U] | 0.25
15 | GUUAACGGCCAUAGGCCAUGGAAGCUAGGAGCACCAUUUCGCUGCCAGUGAAGAAAUGAACAAAGAAAAUCUGGGCCGGGCAGGCAUCAAAGGAAGUAGUCUUGCGCUCAACCAGAAAGUCUGUAAUCAUUUUAAGGGUA [U9C A24G A78G A92G A96G] | 0.38
16 | GUUAACGGUCAUAGGCCAUGGAAACUAGGAGCACCAUUUCGCUGCCAGUGAAGAAAUGAACAAAGAAAAUCCGGGCCAGGCAGGCAUCAAAAGAAAUAGUCUUGCGCUCAACCAGAAAGUCCGUAAUCAUUUUAGGGGUA [U72C U122C A135G] | 0.12
17 | GUUAACGGUCAUAGGCCAUGGUAACUAGGAGCACCAUUUCGCUGCCAGAGAAGAAAUGAACAAAGAAAAUCUGGGCCAGGCAGGCAUCAAAAGAAAUAGUCUCGCGCUCAACCAGAAAGUCUGUAAUCAUUCUAAGGGUG [A22U U49A U103C U132C A140G] | 0.34
18 | GUUAACGGUCAUAGGCCAUGGAAACUAGGAGCACCACUUCGCUGCCAGUGAAGAAAUGAACUAAGAAAAUCAGGGCCAGGCAGGCAUCAAAAGAAAUAGCCUUGCGCUCAACCAGAAGGUCUGUAAUCAUUUUAAGGGUA [U37C A62U U72A U100C A118G] | 0.21
19 | GUUAACGGUCAUAGGCCAUGGGAACUAGGAGCACCAUUUCGCUGCCAGUGAAGAAAUGAACAAAGAAAGUCUGGGCCAGGCAGGCAUCAAAAGAAAUAGUCUUGCGCUCAACCAGAGAGUCUGUAAUCAUUUUAAGGGUA [A22G A69G A117G] | 2.16
20 | GUUACCGGUCACAGGCCAUGGAAACUAGGAGCACCAUUUCGCUGCCAGUGAAGUAAUGAACAAAGAAAAUCUGGGCCAGGCAGGCAUCAAAAGAAAUAGUCUCGCGCUCAACCGGAAAGUCUGUAAUCAUUUUAAGGGUA [A5C U12C A54U U103C A114G] | 0.39
21 | GUUAACGGUCAUAGGCCAUGGAAACUAGGAGCACCAUUUCGCUGCCAGUGAAGAAAUGAGCAAAGAAGAUCUGGGCCAGGCAGGCAUCAGAAGAAAUAGUCUUGCGCUCAACCUGAAAGUCUGUAAUCAUUUUAAGGGUA [A60G A68G A90G A114U] | 0.03

Row | Variant | self-cleavage
22 | GUUAACGGUCAUAGGCCAUGGAAACUAGGAGCACCAUUUCGCUGCCAGUGGAGAAACGAACAAAGAAAAUCUGGGCCAGGCAGGCAUCAAAAGAAAUAGUCUUGCGCUCAACCAGAAAGUCUGGAAUCAUUUUAAGGGUA [A51G U57C U124G] | 0.34
23 | GUUAACGGUCAUAGGCCAUGGAAACUAGGAGCACCAUUUCGCUGCCAAUGAAGAGGUGAACAAAGAAAAUCUGGGCCAGGCAGGCAUCAAAAGAAAUAGUCUUGCGCUCAACCAGAAAGUCAGUAAUCAUUUUAAGGGUA [G48A A55G A56G U122A] | 0.72
24 | GUUAACGGUCAUAGGCCAUGGAGACUAGGAGCACCAUUUCGCUGCCAGUGAAGAUGUGAACAAAGAAAAUCUGGGCCAGGCAGGCAUCAAAAGAAAUAGUCUUGCGCUCAACCAGAAAGUCUGUAAUCGUUUUAAGGGUA [A23G A55U A56G A129G] | 0.7
25 | GUUAACGGUCAUAGGCCAUGGCAACUAGGAGCACCAUUUCGCUGCCAGUGAAGAAAUGAACAGAGAAAAUCUGGGCCAGGCAGGCAUCGAAAGAAAUAGUCUUGCGCUCAACCAGAGGGUCUGUAAUCAUUUUAAGGGUA [A22C A63G A89G A117G A118G] | 2.18
26 | GUUAACGGUCAUAGGCCAUGGAAACUAGGAACACCACUUCGCUGCCAGUGAAGAAAUGAACGCAGAAAAUCUGGGCCAGGCAGGCAUCAAAAGAAAUAGUCUUGCGCUCAACCAGAAAGUCUGUAAUCAUUUUAAGGGUA [G31A U37C A62G A63C] | 1.64
27 | GUUAACGGUCAUAGGCCAUGGUAACUAGGAGCACCAUCACGCUGCCAGUGAAGAAAUGAACAAAGAAGAUCUGGUCCAGGCAGGCAUCAAAAGAAAUAGUCUUGCGCUCAACCAGAAAGUCUGUAAUCAUUUUAAGGGUA [A22U U38C U39A A68G G75U] | 0.13
28 | GUUAACGGUCAUAGGCCAUGGAAACUAGGAGUACCAUUUCGCUGCCAGUGAAGAAAUGAACAUAGAAAAUCUGGGCCAGGCAGGCUUCAAAAGAAAUAGUCUUGCGCCCAACCAGAAAGUCUGUAAUCAUUUUAAGGGUA [C32U A63U A86U U108C] | 0.02
29 | GUUAACGGUCAUAGGCCAUGGAAACUAGGAGCACCAUUUCGCUGCCAGCGAUGAAAUGGACAAAGAAAAUCUGGGCCAGGCAGGCAUCAAAAGAAAUAGUCUUGCACUCAACCAGAAAGUCUGUAAUCAUUUUAAGGGUA [U49C A52U A59G G106A] | 0.01
30 | GUUAACGGUCAUAGGCCAUGGUAACUAGGAGCACCAUUUCGCUGCCAGUGAAGAAAUGAACAAAGGAAACCUGGGCCAGGCAGGCAUCAAGAGAAACAGUCUUGCGCUCAACCAGAAAGUUUGUAAUCAUUCUAAGGGUA [A22U A66G U70C A91G U97C C121U U132C] | 0.28
31 | GUUAACGGUCAUAGGCCAUGGAGACUAGGAGCGCCAUUUCGCUGCCAGUGAAGAAAUGAACAAAGAAAAUCUGGGCCAGGCAGGCAUCAGAAGAAAUAGUCUUGCGCUCAACCAGAAGGUCUGUAAUCAUUUUAAGGGUG [A23G A33G A90G A118G A140G] | 0.16
32 | GUUAACGGUCAUAGGCCAUGGUAACUGGGAGCACCAUUUCGCUGCCAGUGAAGAAAUGAACAAAGAAAAUCUGGGCCAGGCAGGCAUCGAAAGAAAUAGUCUUGCGCUCAACCAGAAGGUCUGUAAUCAUUUUAAGGGUA [A22U A27G A89G A118G] | 1.18
33 | GUUAACGGUCAUAGGCCAUGGGAACUAGGAGCACCAUUUCGCUACCAGUGAAGGAAUGAACAAAGAAAGUCUGGGCCAGGCAGGCAUCAAAAGAAAUAGUCUUGCGCUCAACCAGAAAGUCUGUAAUCAUUUUAAGGGUA [A22G G44A A54G A69G] | 1.92
34 | GCUAACGGUCAUAGGCCAUGGAAACUAGGAGCACCAUUUCGCUGCCAGUGAAGAAAUGUACAAAGAAAAUCUGGGCCAGGCAGGCAUCAAAAGAAAUAGUCUUGCGCUCAACCAGAAAGUCAGUAAUCAUUUUAAGGGUA [U2C A59U U122A] | 1.26
35 | GUUAACGGUCAUAGGCCAUGGAAACUGGGAGCACCAUUUCGCUGCCAGUGAAGAAAUGAACAAAGAAAAUCUGGGCCAGGCAGGCAUCAAAAGAAAUAGUCUCGCGCUCAACCAGAAAGUCUGUAAUCAUUUUGAGGGUA [A27G U103C A134G] | 0.18
36 | GUUAACGGUCAUAGGCCAUGGAAACUAGGAGCACCAUUUCGCUGCCAGUGAAGAAAUGAACAAAGAGAAUCUGGGCCAGGCAGGCAUCAAAAGAAAUAGUCUUGCGCUCAACCAGGAAGUCUGUAAUCAUUUAAAGGGUA [A67G A116G U133A] | 0.49
37 | GUUAACGGUCAUAGGCCAUGGAAACUAGGAGCACCAUUUCGCUGCCAGUGAAGGAAUGAACAAAGAGAAUCUGGGCCAGGCAGGCAUCAAAAGGAAUAGUCUUGCGCUCAACCGGAAAGUCUGUAAUCAUUUUAAGGGUA [A54G A67G A94G A114G] | 0.56
38 | GUUAACGGUCAUAGGCCAUGGAAACUAGGAGCACCAUUUCGCUGCCAGUGAAGAAAUGAACAAAGAAAAUCUGGGCCAGGCAGGCAUCAGAAGAAAUAGUCUUGCGCUCAACCGGAAAGUCUGUAAUCAUUUUAUGGGUA [A90G A114G A135U] | 0.07
39 | GCUAACGGUCUUAGGCCAUGGAAACUAGGAGCACCAUUUCGCUGCCAGUGAAGAAAUGAACAGUGAAAAUCUGGGCCAGGCAGGCAUCAAAAGAAGUAGUCUUGCGCUCAACCAGAAAGUCUGUAAUCAUUUUAAGGGUA [U2C A11U A63G A64U A96G] | 1.05
40 | GUUAACGGUCAUAGGCCAUGGGAGCUAGGAGCACCAUUUCGCUGCCAGUGAGGAAGUCAACAAAGAAAAUCUGGGCCAGGCAGGCAUCAAAAGAAAUAGUCCUGCGCUCAACCAGAAAGUCUGUAAUCAUUUUAAGGGUA [A22G A24G A52G A56G G58C U102C] | 1.06
41 | GUUAACGGUCAUAGGCCAUGGAAACCAGGAGCACCAUUUCGCUGCCAGUGAAGAAAUGAACAAAGAAAAUCUGGGCCAGGCAGGCAUCAAAAGAAAUAGUCUUGCGCUCAACCGGAAAGUCUGUAAUCAUUUUAUGGGUA [U26C A114G A135U] | 0.01
